The values below come from a collection of fitness landscapes (doi:10.1038/s41467-024-54723-y).

Whole data set: some 18,000 sequences, median “TetR repression strength (sort-seq, GFP reporter)” near 0.23, cut for the highest 2% near 0.68. The list shows a part of the results.

In the test the target is TetR (class B, Tn10) (UniProt P04483). Kind of test: TetR repression strength (sort-seq, GFP reporter) (relative to tetO2 = 1); higher = stronger repression. As to conditions: E. coli. The gist of the method: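 In LB with 50 µg/mL chloramphenicol, E. coli SIG10-MAX holding a low-copy library with eight randomized operator positions between a constitutive promoter and sfGFP, plus constitutive TetR, grew for 5 h at 37 °C. FACS then sorted 10^6 cells into 13 fluorescence bins for Illumina sequencing of each bin. Repression strength equals the top bin index plus one less the read-weighted mean bin, normalized to the unaltered operator. Values from three independent transformations were averaged when reads were ≥30 in every replicate and the CV was ≤0.5.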
UniProt P04483, sequence (P04483 whole entry): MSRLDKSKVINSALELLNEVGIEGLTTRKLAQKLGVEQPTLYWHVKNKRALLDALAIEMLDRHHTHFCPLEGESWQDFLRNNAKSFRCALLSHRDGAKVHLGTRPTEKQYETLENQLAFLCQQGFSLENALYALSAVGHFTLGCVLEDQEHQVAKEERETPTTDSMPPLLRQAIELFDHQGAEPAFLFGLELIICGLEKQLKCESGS
Turning to TCCCCGGTAGTGAGGGAGA, the TetR repression strength turned out to be 0.299.

TCCCCTGCAGTATGGGAGA showed a TetR repression strength of 0.113.

TCCCGGATAGTTAAGGAGA showed a TetR repression strength of 0.213.

On to TCCCATGGAGTGTTGGAGA, for which the TetR repression strength stood at 0.177.

In the case of TCCCATTCAGTGAAGGAGA, the TetR repression strength worked out at 0.223.

As to TCCCGGGTAGTGGGGGAGA, the TetR repression strength is 0.273.

TCCCCACGAGTCTCTGAGA displayed a TetR repression strength of 0.326.

TCCCGCAAAGTTCCGGAGA came in with a TetR repression strength of 0.236.

With TCCCGGAGAGTGGGGGAGA, the TetR repression strength turned out to be 0.171.

With TCCCATGAAGTCCTAGAGA, the TetR repression strength was 0.32.

For TCCCCCACAGTTTAAGAGA, the TetR repression strength stood at 0.307.

TCCCTTATAGTCCACGAGA: the TetR repression strength worked out at 0.238.

TCCCGTGGAGTGACTGAGA returned a TetR repression strength of 0.356.

With TCCCGAGAAGTTGGTGAGA, the TetR repression strength came to 0.146.

Regarding TCCCAGGAAGTGGGGGAGA, the TetR repression strength came out at 0.191.

In turn, TCCCCTTGAGTATGTGAGA displayed a TetR repression strength of 0.409.

Sequence TCCCTGCAAGTTGTCGAGA showed a TetR repression strength of 0.192.

In turn, TCCCATGCAGTCGGCGAGA gave a TetR repression strength of 0.235.

Consider TCCCCTACAGTGCAGGAGA, for which the TetR repression strength amounted to 0.333.

In turn, TCCCCAAAAGTCATGGAGA showed a TetR repression strength of 0.

TCCCGATTAGTTCGAGAGA registered a TetR repression strength of 0.0912.

On to TCCCAGGAAGTTAACGAGA, for which the TetR repression strength is 0.091.

On to TCCCACTGAGTAGAGGAGA, for which the TetR repression strength is 0.138.

On to TCCCATAAAGTGGCCGAGA, for which the TetR repression strength worked out at 0.228.

The sequence TCCCTTTTAGTTATGGAGA yielded a TetR repression strength of 0.293.

TCCCAGGGAGTGCGAGAGA displayed a TetR repression strength of 0.203.

TCCCTCGCAGTGATCGAGA had a TetR repression strength of 0.218.

Consider TCCCTGTCAGTCAGCGAGA, for which the TetR repression strength was found to be 0.489.

In the case of TCCCCACAAGTACATGAGA, the TetR repression strength is 0.184.

Consider TCCCGCTTAGTACGGGAGA, for which the TetR repression strength is 0.194.

Sequence TCCCTGCGAGTGTCCGAGA came in with a TetR repression strength of 0.184.

With TCCCGACTAGTGGAGGAGA, the TetR repression strength was 0.292.

In turn, TCCCGGGGAGTCCGTGAGA displayed a TetR repression strength of 0.302.

TCCCCGCCAGTCCATGAGA showed a TetR repression strength of 0.387.

TCCCGGGTAGTTTTCGAGA gave a TetR repression strength of 0.137.

TCCCGGGAAGTGATGGAGA displayed a TetR repression strength of 0.283.

TCCCGTGTAGTACGGGAGA came in with a TetR repression strength of 0.146.

The sequence TCCCCACTAGTCCGTGAGA showed a TetR repression strength of 0.279.

As to TCCCCAAGAGTAACGGAGA, the TetR repression strength came to 0.257.

As for TCCCTTTCAGTTAGGGAGA, the TetR repression strength came out at 0.239.

TCCCGGAGAGTGTACGAGA: the TetR repression strength came out at 0.0216.

TCCCACCTAGTGGCCGAGA came in with a TetR repression strength of 0.416.

In the case of TCCCGTTTAGTTAGTGAGA, the TetR repression strength is 0.162.

For the sequence TCCCGCAGAGTGCACGAGA, the TetR repression strength was 0.155.

In turn, TCCCGCGAAGTTTAAGAGA showed a TetR repression strength of 0.207.

In the case of TCCCACCGAGTAGGTGAGA, the TetR repression strength is 0.178.

As to TCCCTGTCAGTGTAGGAGA, the TetR repression strength came to 0.0999.

Take TCCCGTATAGTTCGTGAGA: the TetR repression strength is 0.245.

TCCCGTGGAGTGTAAGAGA came in with a TetR repression strength of 0.172.

As to TCCCGAATAGTGGATGAGA, the TetR repression strength came out at 0.339.

Take TCCCTCTAAGTTCCGGAGA: the TetR repression strength was 0.207.

TCCCTAACAGTAAAGGAGA: the TetR repression strength was 0.475.

The sequence TCCCGGCTAGTGGTGGAGA showed a TetR repression strength of 0.219.

Consider TCCCCTTGAGTTGCCGAGA, for which the TetR repression strength was found to be 0.247.

Turning to TCCCCAGGAGTCGAGGAGA, the TetR repression strength was 0.164.

TCCCGATAAGTTGGGGAGA displayed a TetR repression strength of 0.211.

For the sequence TCCCATTCAGTGGCGGAGA, the TetR repression strength stood at 0.444.

In turn, TCCCGGGTAGTTAGGGAGA gave a TetR repression strength of 0.293.

Regarding TCCCTTTCAGTGTTAGAGA, the TetR repression strength worked out at 0.459.

On to TCCCTGTAAGTTCTTGAGA, for which the TetR repression strength came to 0.207.

TCCCTAACAGTCGGCGAGA showed a TetR repression strength of 0.163.

TCCCACTAAGTCTGCGAGA: the TetR repression strength turned out to be 0.321.

As to TCCCCAGTAGTCGCTGAGA, the TetR repression strength stood at 0.311.

Sequence TCCCGGCGAGTAAAAGAGA gave a TetR repression strength of 0.101.

Sequence TCCCAAAGAGTGGACGAGA displayed a TetR repression strength of 0.218.

In turn, TCCCAGTTAGTTCACGAGA gave a TetR repression strength of 0.132.

Turning to TCCCACCAAGTATTTGAGA, the TetR repression strength is 0.149.

Sequence TCCCTTACAGTCGGGGAGA displayed a TetR repression strength of 0.125.

In turn, TCCCACGTAGTGAGAGAGA registered a TetR repression strength of 0.164.

Sequence TCCCCTTTAGTTCTTGAGA returned a TetR repression strength of 0.47.

In the case of TCCCTATAAGTGTCGGAGA, the TetR repression strength came to 0.113.

As to TCCCGGTGAGTGGTAGAGA, the TetR repression strength was 0.176.

TCCCGGGAAGTAGCCGAGA came in with a TetR repression strength of 0.345.

With TCCCTCGGAGTGCCGGAGA, the TetR repression strength came to 0.204.

In turn, TCCCCAAAAGTGATAGAGA registered a TetR repression strength of 0.365.

For TCCCTAGGAGTCGAGGAGA, the TetR repression strength came to 0.0868.

The sequence TCCCTATTAGTGGATGAGA returned a TetR repression strength of 0.344.

On to TCCCCTAGAGTGCTAGAGA, for which the TetR repression strength is 0.0993.

Take TCCCCATGAGTTAGTGAGA: the TetR repression strength is 0.175.

TCCCGTTAAGTGAACGAGA displayed a TetR repression strength of 0.369.

Regarding TCCCTCCAAGTAAGGGAGA, the TetR repression strength amounted to 0.415.

In turn, TCCCTGAGAGTGTCTGAGA came in with a TetR repression strength of 0.309.

TCCCATTGAGTTGCTGAGA returned a TetR repression strength of 0.153.

The sequence TCCCACCTAGTTGTAGAGA came in with a TetR repression strength of 0.3.

The sequence TCCCGCGCAGTGCTCGAGA had a TetR repression strength of 0.156.

TCCCATCAAGTGGATGAGA returned a TetR repression strength of 0.255.

TCCCACCGAGTGTAGGAGA displayed a TetR repression strength of 0.149.

TCCCGCTGAGTCCTTGAGA: the TetR repression strength stood at 0.152.

In the case of TCCCGTGTAGTTCCAGAGA, the TetR repression strength amounted to 0.27.

The sequence TCCCAGGTAGTACAGGAGA displayed a TetR repression strength of 0.408.

TCCCCTGCAGTGGTTGAGA showed a TetR repression strength of 0.265.

As for TCCCTAGGAGTATGGGAGA, the TetR repression strength was 0.184.

As to TCCCGCTGAGTAATGGAGA, the TetR repression strength turned out to be 0.218.

TCCCAACCAGTGTGGGAGA came in with a TetR repression strength of 0.204.

TCCCAGAGAGTGACGGAGA: the TetR repression strength was 0.157.

Sequence TCCCAACAAGTGTTTGAGA came in with a TetR repression strength of 0.0239.

In turn, TCCCTGCCAGTGCGGGAGA yielded a TetR repression strength of 0.186.

On to TCCCAATTAGTCTATGAGA, for which the TetR repression strength was 0.182.

As to TCCCGTAAAGTTGCAGAGA, the TetR repression strength was determined as 0.0543.

With TCCCCGTCAGTCTTCGAGA, the TetR repression strength amounted to 0.417.

TCCCCTCGAGTTGGTGAGA gave a TetR repression strength of 0.04.

In turn, TCCCTTTCAGTAGAGGAGA displayed a TetR repression strength of 1.01.
